From PMC2364705

Molecular target: microtubules (MTs) assembled from purified tubulin
Assay: co-sedimentation

Kd: 6.1 µM | stoichiometry N (scale: tubulin per mDia2): 4.7
Substance: His-FH1FH2mDia2, wild type ([…]) (a stretch of the chain, sequence not shown) (domain or fragment)
